From publication doi:10.1101/153403, “Structure of the human pro-myostatin precursor and determinants of growth factor latency” (bioRxiv, 2017)

Legend:
[1] = target: the molecule itself; assay: crystal structure; sitting drops at 19°C; proMSTN-Δ43 in 0.1 M Na acetate pH 4.2, 1 M ammonium phosphate; proMSTNΔ43-mut in 10% PEG 6K, 0.1 M HEPES pH 7.0
[2] = target: the molecule itself; assay: SEC-MALS; Superdex 200 Increase 10/300, 20 mM Tris pH 8.0, 150 mM NaCl, 100 μl of sample at 1-1.5 mg/ml

| Protein | binding result [1] | stoichiometry N [2] |
| --- | --- | --- |
| wild-type human pro-myostatin with N terminal truncation (proMSTN-Δ43) (domain or fragment, selenomethionine (SeMet-labelled protein used for phasing of the 4.2 Å structure), native furin site intact; also called SeMet-labelled proMSTN-Δ43; not shown: His tag, N-terminal, cleaved) not shown | binds |  |
| unprocessed human pro-myostatin (pro-MSTN) (natural protein, human pro-myostatin (GDF8) lacking the signal peptide, […]; native furin site intact; pHAT2 vector; Disulfide-linked homodimer; also called uncleaved pro-myostatin; pro-GDF8; not shown: His tag, N-terminal, kept) not shown |  | 2 |
